Some of the results follow. Single values are uncertain, as repeats are few or missing.
test system: COLO800; experiment: cell count relative to DMSO control; melanoma cells; higher = more viable cells; conditions: library dose: low library concentration; 72 h
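Further: cell number obtained by counting DAPI-stained nuclei in high-throughput microscope images with image analysis software, screen run in 1,536-well plates.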

| Compound | cell count [%] |
| --- | --- |
| CS(=O)(=O)CCNCc1ccc(-c2ccc3ncnc(Nc4ccc(OCc5cccc(F)c5)c(Cl)c4)c3c2)o1 [lapatinib] + Oc1cc(-c2nc(-c3ccccc3)[nH]c2-c2ccncc2)ccc1Cl [L779450] (first compound 0.8 µM, partner dose 0.2 µM) | 115 |
| CN1CCN(c2ccc3nc(-c4c(N)c5c(F)cccc5[nH]c4=O)[nH]c3c2)CC1 [Dovitinib] + O=C(O)C(=O)Nc1sc2c(c1C(=O)O)CCNC2 [TCS401] (first compound 0.1 µM, partner dose 1.66667 µM) | 116 |
| C=CCNC1=C2C[C@@H](C)C[C@H](OC)[C@H](O)[C@@H](C)/C=C(\C)[C@H](OC(N)=O)[C@@H](OC)/C=C\C=C(/C)C(=O)NC(=CC1=O)C2=O [Tanespimycin] + COc1ccc(COc2ccc(Cc3cnc(N)nc3N)cc2OC)cc1 [GW2580] (first compound 0.002 µM, partner dose 1 µM) | 86.2 |
| CNC(=O)c1cc(Oc2ccc(NC(=O)Nc3ccc(Cl)c(C(F)(F)F)c3)cc2)ccn1 [sorafenib] + COc1ccc(-c2ccc3c(N4CCOCC4)nc(N4C[C@@H](C)O[C@@H](C)C4)nc3n2)cc1CO [KU0063794] (first compound 0.4 µM, partner dose 0.02 µM) | 137 |
| CNC(=O)c1cc(Oc2ccc(NC(=O)Nc3ccc(Cl)c(C(F)(F)F)c3)cc2)ccn1 [sorafenib] + COc1ccc2c(c1)CCC1C2CCC2(C)C(NCCCCCCN3C(=O)C=CC3=O)CCC12 [U73122] (first compound 0.4 µM, partner dose 0.4 µM) | 139 |
| C[C@@H](Oc1cc(-c2cnn(C3CCNCC3)c2)cnc1N)c1c(Cl)ccc(F)c1Cl [Crizotinib] + O=c1cc(-c2cccc3c2Sc2ccccc2S3)oc(N2CCOCC2)c1 [KU55933] (first compound 0.2 µM, partner dose 1 µM) | 119 |
| C[C@@H](Oc1cc(-c2cnn(C3CCNCC3)c2)cnc1N)c1c(Cl)ccc(F)c1Cl [Crizotinib] + COC(=O)c1sccc1S(=O)(=O)Nc1ccc(Nc2ccccc2)cc1OC [GSK0660] (first compound 0.2 µM, partner dose 1 µM) | 77.8 |
| CS(=O)(=O)CCNCc1ccc(-c2ccc3ncnc(Nc4ccc(OCc5cccc(F)c5)c(Cl)c4)c3c2)o1 [lapatinib] + O=C(O)C(=O)Nc1sc2c(c1C(=O)O)CCNC2 [TCS401] (first compound 0.8 µM, partner dose 1.66667 µM) | 110 |

test system: COLO829; experiment: as above; conditions: library dose: low library concentration; 72 h

| Compound | cell count [%] |
| --- | --- |
| C=CCNC1=C2C[C@@H](C)C[C@H](OC)[C@H](O)[C@@H](C)/C=C(\C)[C@H](OC(N)=O)[C@@H](OC)/C=C\C=C(/C)C(=O)NC(=CC1=O)C2=O [Tanespimycin] + Cn1cc(/C=C2\C(=O)Nc3cccnc32)c2ccccc21 [GW441756] (first compound 0.002 µM, partner dose 0.4 µM) | 118 |
| CNC(=O)c1cc(Oc2ccc(NC(=O)Nc3ccc(Cl)c(C(F)(F)F)c3)cc2)ccn1 [sorafenib] + c1cc(-c2cnn3cc(-c4ccc(OCCN5CCCCC5)cc4)cnc23)ccn1 [Dorsomorphin] (first compound 0.4 µM, partner dose 0.4 µM) | 107 |
| C[C@@H](Oc1cc(-c2cnn(C3CCNCC3)c2)cnc1N)c1c(Cl)ccc(F)c1Cl [Crizotinib] + COc1cc(N2CCC(N3CCN(C)CC3)CC2)ccc1Nc1ncc(Cl)c(Nc2ccccc2S(=O)(=O)C(C)C)n1 [NVP-TAE684] (first compound 0.2 µM, partner dose 0.08 µM) | 94.2 |
| CNC(=O)c1cc(Oc2ccc(NC(=O)Nc3ccc(Cl)c(C(F)(F)F)c3)cc2)ccn1 [sorafenib] + CCCCCCCCCCCC1=C(O)C(=O)C=C(O)C1=O [Embelin] (first compound 0.4 µM, partner dose 1.2 µM) | 129 |
| CS(=O)(=O)CCNCc1ccc(-c2ccc3ncnc(Nc4ccc(OCc5cccc(F)c5)c(Cl)c4)c3c2)o1 [lapatinib] + O=C(Nc1ccccc1)c1cc([N+](=O)[O-])ccc1Cl [GW9662] (first compound 0.8 µM, partner dose 2 µM) | 96.6 |
| CS(=O)(=O)CCNCc1ccc(-c2ccc3ncnc(Nc4ccc(OCc5cccc(F)c5)c(Cl)c4)c3c2)o1 [lapatinib] + COc1ccc2c(c1)CCC1C2CCC2(C)C(NCCCCCCN3C(=O)C=CC3=O)CCC12 [U73122] (first compound 0.8 µM, partner dose 0.4 µM) | 115 |
| CNC(=O)c1cc(Oc2ccc(NC(=O)Nc3ccc(Cl)c(C(F)(F)F)c3)cc2)ccn1 [sorafenib] + O=C(Nc1ccccc1)c1cc([N+](=O)[O-])ccc1Cl [GW9662] (first compound 0.4 µM, partner dose 2 µM) | 113 |
| CS(=O)(=O)CCNCc1ccc(-c2ccc3ncnc(Nc4ccc(OCc5cccc(F)c5)c(Cl)c4)c3c2)o1 [lapatinib] + COc1ccc(-c2ccc3c(N4CCOCC4)nc(N4C[C@@H](C)O[C@@H](C)C4)nc3n2)cc1CO [KU0063794] (first compound 0.8 µM, partner dose 0.02 µM) | 86.8 |
| CS(=O)(=O)CCNCc1ccc(-c2ccc3ncnc(Nc4ccc(OCc5cccc(F)c5)c(Cl)c4)c3c2)o1 [lapatinib] + O=C1NC(=O)/C(=C/c2ccc(-c3ccc(F)cc3O)o2)S1 [AS252424] (first compound 0.8 µM, partner dose 1 µM) | 94.2 |
| CNC(=O)c1cc(Oc2ccc(NC(=O)Nc3ccc(Cl)c(C(F)(F)F)c3)cc2)ccn1 [sorafenib] + COc1cc(N2CCC(N3CCN(C)CC3)CC2)ccc1Nc1ncc(Cl)c(Nc2ccccc2S(=O)(=O)C(C)C)n1 [NVP-TAE684] (first compound 0.4 µM, partner dose 0.08 µM) | 84.6 |
| CN1CCN(c2ccc3nc(-c4c(N)c5c(F)cccc5[nH]c4=O)[nH]c3c2)CC1 [Dovitinib] + COc1cc2ncnc(Nc3ccc(Oc4ccccc4)cc3)c2cc1OC [SrcI1] (first compound 0.1 µM, partner dose 2 µM) | 124 |
| CN1CCN(c2ccc3nc(-c4c(N)c5c(F)cccc5[nH]c4=O)[nH]c3c2)CC1 [Dovitinib] + CC(C)CCN1c2nc(Nc3cc(F)c(O)c(F)c3)ncc2N(C)C(=O)C1C [BID1870] (first compound 0.1 µM, partner dose 0.2 µM) | 96.2 |
| CN1CCN(c2ccc3nc(-c4c(N)c5c(F)cccc5[nH]c4=O)[nH]c3c2)CC1 [Dovitinib] + O=C1NC(=O)/C(=C/c2ccc(-c3ccc(F)cc3O)o2)S1 [AS252424] (first compound 0.1 µM, partner dose 1 µM) | 84.1 |
| C=CCNC1=C2C[C@@H](C)C[C@H](OC)[C@H](O)[C@@H](C)/C=C(\C)[C@H](OC(N)=O)[C@@H](OC)/C=C\C=C(/C)C(=O)NC(=CC1=O)C2=O [Tanespimycin] + CCN(CC)CCCCNc1ncc2cc(-c3cc(OC)cc(OC)c3)c(NC(=O)NC(C)(C)C)nc2n1 [PD173074] (first compound 0.002 µM, partner dose 0.1 µM) | 111 |
| C[C@@H](Oc1cc(-c2cnn(C3CCNCC3)c2)cnc1N)c1c(Cl)ccc(F)c1Cl [Crizotinib] + CCCCCCCCCCCC1=C(O)C(=O)C=C(O)C1=O [Embelin] (first compound 0.2 µM, partner dose 1.2 µM) | 86.2 |
| CN1CCN(c2ccc3nc(-c4c(N)c5c(F)cccc5[nH]c4=O)[nH]c3c2)CC1 [Dovitinib] + CCCCCCCCCCCC1=C(O)C(=O)C=C(O)C1=O [Embelin] (first compound 0.1 µM, partner dose 1.2 µM) | 83.4 |
| CN1CCN(c2ccc3nc(-c4c(N)c5c(F)cccc5[nH]c4=O)[nH]c3c2)CC1 [Dovitinib] + CCN(CC)CCCCNc1ncc2cc(-c3cc(OC)cc(OC)c3)c(NC(=O)NC(C)(C)C)nc2n1 [PD173074] (first compound 0.1 µM, partner dose 0.1 µM) | 96.5 |
| CS(=O)(=O)CCNCc1ccc(-c2ccc3ncnc(Nc4ccc(OCc5cccc(F)c5)c(Cl)c4)c3c2)o1 [lapatinib] + COC(=O)c1sccc1S(=O)(=O)Nc1ccc(Nc2ccccc2)cc1OC [GSK0660] (first compound 0.8 µM, partner dose 1 µM) | 96 |
| C=CCNC1=C2C[C@@H](C)C[C@H](OC)[C@H](O)[C@@H](C)/C=C(\C)[C@H](OC(N)=O)[C@@H](OC)/C=C\C=C(/C)C(=O)NC(=CC1=O)C2=O [Tanespimycin] + COC(=O)c1sccc1S(=O)(=O)Nc1ccc(Nc2ccccc2)cc1OC [GSK0660] (first compound 0.002 µM, partner dose 1 µM) | 125 |
| C[C@@H](Oc1cc(-c2cnn(C3CCNCC3)c2)cnc1N)c1c(Cl)ccc(F)c1Cl [Crizotinib] + O=S(=O)(c1ccccc1)N(CC(F)(F)F)c1ccc(C(O)(C(F)(F)F)C(F)(F)F)cc1 [T0901317] (first compound 0.2 µM, partner dose 1.4 µM) | 94.1 |
| C=CCNC1=C2C[C@@H](C)C[C@H](OC)[C@H](O)[C@@H](C)/C=C(\C)[C@H](OC(N)=O)[C@@H](OC)/C=C\C=C(/C)C(=O)NC(=CC1=O)C2=O [Tanespimycin] + CCCCCCCCCCCC1=C(O)C(=O)C=C(O)C1=O [Embelin] (first compound 0.002 µM, partner dose 1.2 µM) | 94.2 |
